# Assay results: the supplement of paper PMC3334620
# Over roughly 33,000 sequences, “E-score (-0.5 to 0.5)” has its median near -0.021; the highest 2% begin near 0.32. This is one part of the list.
# Target: T1, Zap1 (UniProt P47043)
# T1 sequence: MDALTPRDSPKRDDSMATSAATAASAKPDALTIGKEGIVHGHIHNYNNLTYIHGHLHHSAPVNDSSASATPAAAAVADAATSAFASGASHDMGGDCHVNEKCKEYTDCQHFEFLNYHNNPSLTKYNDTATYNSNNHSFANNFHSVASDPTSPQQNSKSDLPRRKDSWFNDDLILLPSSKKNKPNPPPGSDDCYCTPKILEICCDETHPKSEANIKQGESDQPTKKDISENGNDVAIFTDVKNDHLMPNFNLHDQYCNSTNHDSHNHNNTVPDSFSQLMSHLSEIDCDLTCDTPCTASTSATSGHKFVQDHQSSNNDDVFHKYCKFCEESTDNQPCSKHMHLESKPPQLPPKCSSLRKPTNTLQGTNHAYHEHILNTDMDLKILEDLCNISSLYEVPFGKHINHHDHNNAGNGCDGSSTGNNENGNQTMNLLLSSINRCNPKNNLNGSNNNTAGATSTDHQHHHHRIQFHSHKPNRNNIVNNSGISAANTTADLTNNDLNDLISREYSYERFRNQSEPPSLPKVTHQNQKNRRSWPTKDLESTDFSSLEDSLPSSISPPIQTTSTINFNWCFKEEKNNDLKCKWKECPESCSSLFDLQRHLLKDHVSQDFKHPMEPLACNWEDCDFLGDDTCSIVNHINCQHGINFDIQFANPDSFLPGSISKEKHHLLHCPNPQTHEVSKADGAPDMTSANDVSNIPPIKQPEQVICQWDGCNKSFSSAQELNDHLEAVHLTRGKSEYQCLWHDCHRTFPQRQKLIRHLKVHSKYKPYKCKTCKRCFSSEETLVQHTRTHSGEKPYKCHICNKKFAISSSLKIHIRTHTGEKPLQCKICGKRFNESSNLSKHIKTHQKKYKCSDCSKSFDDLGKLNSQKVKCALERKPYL
# Test: PBM E-score (8-mer binding enrichment) (E-score (-0.5 to 0.5)); higher = stronger / more preferred TF binding; most listed sequences are background and not binding sites
# Settings: protein concentration: 200 nM; construct: GST-full length
# In short: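 E-scores (a modified Wilcoxon-Mann-Whitney statistic) were assigned by the Universal PBM Analysis Suite to every ungapped eight-base word pooled with its reverse complement. The input came from universal all-10-mer Agilent arrays made double-stranded by primer extension and probed with GST-tagged yeast transcription factors at about 100-200 nM. Fluorescent anti-GST detected bound protein, and masliner normalised the scans.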
row,Sequence,PBM E-score
1,CCAGGCTC,-0.165
2,AAGATCAC,0.122
3,ACCTAGCT,-0.147
4,AATGGAGT,-0.0281
5,AAAATCAT,0.108
6,ATGTCCTG,-0.0212
7,ATTGGATG,-0.0351
8,GATCTTTA,0.187
9,AGGTCTTC,-0.0293
10,GACCACCA,0.201
11,GTGCCCCA,-0.115
12,AATTTCTA,0.189
13,AAACCCGG,0.261
14,TCAGACAA,-0.0468
15,CAGATAAA,-0.0391
16,GGGCGATA,-0.265
17,GTTGCCAA,0.0303
18,AATATCGG,0.192
19,CGGTCTGA,0.0371
20,AATCGCAG,-0.0435
21,CGAGGAAC,0.0111
22,ATTCTGGA,0.116
23,AGAAATGC,0.0327
24,ACTATTAA,0.204
25,ATTAGTCA,0.119

row,Sequence,PBM E-score
1,AAGCAGCA,-0.00523
2,ACGCGATA,-0.149
3,CAGTTGGC,-0.136
4,GGCCATTA,0.212
5,CGTGTACC,0.0293
6,CACATACG,-0.147
7,CACGCTTC,-0.264
8,CTGTTCAA,-0.0276
9,GTGCGCTA,-0.079
10,AAATAGCT,-0.141
11,CCCATTTC,-0.0636
12,AAACGACT,0.0428
13,CTATCATA,0.109
14,GCCATTTA,0.135
15,CAGCATCA,-0.138
16,TATTTTGA,0.00392
17,CAAAGGCA,-0.122
18,TCGTCCAA,-0.0362
19,GCATGCCA,-0.259
20,ATGGGAAT,-0.246
21,CAAGTTAA,0.0614
22,ACTATACT,0.0601
23,TTCCCCAA,-0.0457
24,CGGTACCC,0.414
25,CCGCATGC,-0.0963

row,Sequence,PBM E-score
1,AACTGGCA,-0.0324
2,CCCAGCAG,0.0983
3,AACTCAAT,0.106
4,AACAATGG,0.0549
5,GCGAATAC,-0.0559
6,TAGACAAA,-0.0412
7,AATGTTCG,-0.0873
8,CCAGGCCA,-0.163
9,ATCTCTAG,-0.145
10,ATACTTTA,0.0993
11,CCGTCCCC,-0.196
12,CTGCATAC,-0.0233
13,CTAGTTTA,0.182
14,CGCGCTTA,0.0235
15,CATTTACA,-0.0536
16,ACTCATAT,-0.0639
17,AAAGTGGA,-0.0378
18,AGGACGAG,-0.115
19,GGTTGATA,0.138
20,AATTGTGT,-0.141
21,GAGAGGCC,-0.138
22,ACTTGACG,-0.0912
23,ACCCTCTG,0.313
24,AAGGCCTA,-0.0221
25,CTTTGCGA,0.169

row,Sequence,PBM E-score
1,CGTGTTAG,0.0187
2,GCATGTTA,-0.0356
3,GAAAGGTC,0.294
4,ACGACGTA,-0.14
5,CCGGTAAC,0.316
6,GCGCAACA,-0.133
7,ATACGGTG,0.181
8,AACTACCT,0.286
9,ACGATGCC,-0.285
10,ATCAACAA,0.186
11,CTAAAGCC,-0.218
12,ATAAGTTG,-0.0925
13,AGGAAGTG,0.0225
14,GTACGTGA,-0.0853
15,GGCTGAAC,-0.0821
16,GCGTCTTA,-0.193
17,ATGAAATG,-0.0399
18,CCGACACC,-0.2
19,ACGAGCGT,-0.0674
20,CGTCTGGA,-0.0902
21,AGCCATGC,-0.369
22,AGATGGGG,-0.214
23,AACTTAGA,0.01
24,GGATCCTA,-0.142
25,AGCTTTAT,-0.0486

row,Sequence,PBM E-score
1,ATTTCCAA,0.0256
2,AAATAGCA,-0.171
3,GACATTGA,-0.0123
4,CCATCCAG,-0.155
5,CTCGCGGA,-0.149
6,AGCTCACA,-0.165
7,CACTAGAC,-0.156
8,ATAGTGCA,-0.0523
9,ACTGCTAA,-0.137
10,CCAACCGA,0.0326
11,AGGCCCCA,-0.0487
12,GATGCAGA,-0.0572
13,CTAACGAG,-0.0614
14,CCTGAACG,-0.00311
15,ACACACAA,0.182
16,CGAGCGCC,-0.202
17,CCGGTTCG,-0.00578
18,AGCTGAGG,-0.138
19,CGAGGACC,-0.0258
20,ACCCCTAA,0.278
21,ACAAAGGT,0.352
22,ACAAACGT,-0.0419
23,CACTGCAA,-0.123
24,ACGTCGCT,-0.238
25,CCATAAGG,0.282

row,Sequence,PBM E-score
1,AATCGGCG,-0.186
2,TAAGGTCA,0.341
3,CGCCCGGA,-0.105
4,GGTTCCAC,0.218
5,ACGGCCCA,-0.047
6,ATTGGGCA,-0.0745
7,AGTTTCCG,0.0649
8,CAGTCTAG,-0.321
9,CTAGGTCA,0.117
10,ATCGCTGG,-0.145
11,ATCATCTC,-0.073
12,TGAATCAA,0.0938
13,ACGTAGAA,0.0762
14,GTTCAACA,-0.0577
15,AAACACCA,0.107
16,AAAGTCTA,0.0717
17,ATTCCACA,0.0774
18,ACTGACGC,-0.187
19,GAGAACAA,0.0974
20,CCCATCAA,0.137
21,TGCTGCCA,-0.191
22,CACCTTCC,0.0289
23,GTATAGGA,-0.215
24,GCCCCAGC,0.00901
25,AAGTTCCC,-0.131

row,Sequence,PBM E-score
1,AGGACTTG,-0.105
2,GCGAAGGA,-0.165
3,AAATTAAG,0.0441
4,CCATGCGG,0.0435
5,CTATAACC,0.446
6,AGTTATTA,0.106
7,CTTCCTGC,-0.31
8,CAGTGCTA,-0.207
9,GTCATGCA,-0.0612
10,CCCCCACG,-0.21
11,ACATCGGA,0.0121
12,AGCCTGTG,-0.29
13,ATCTCTAC,0.114
14,CACTGCCG,-0.107
15,GACTTTAA,0.0488
16,ACCTTGTG,0.281
17,ATAACAAA,0.242
18,AGACAGGG,-0.153
19,ACAACTTA,0.00522
20,GTCCGTTA,0.0812
21,AAAATACA,0.183
22,CGAATAGC,-0.184
